# Variants at the background level are over-represented here.
# B1: TPR 5TU (parent)
# chain: GGAUCUUCUCGAUCUAACAAAAAAGACAAAUCUGCCACAAAGCUUGAGAGCAUCUUCGGAUGCAGAGGCGGCAGCCUUCGGUGGCGCGAUAGCGCCAACGUUCUCAACUAUGACACGCAAAACGCGUGCUCCGUUGAAUGGAGUUUAUCAUG
# Variants of: B1
# Assay: polymerase ribozyme fitness, log enrichment relative to wild type (log ratio); higher = more active; in vitro selection for triplet polymerase activity
# In short: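 Mutant libraries for each subunit of a heterodimeric triplet polymerase ribozyme were made by PCR and then transcribed. Each library underwent one round of in vitro selection in triplicate: annealing with a biotinylated primer, the partner subunit and triplets, frozen incubation at −7 °C, gel excision of extended constructs, streptavidin-bead capture and RT-PCR. Input and output libraries were Illumina-sequenced, and only genotypes with ≥10 input reads and ≥1 read per output were kept. Fitness is the logarithm, base 2, of genotype enrichment over wild-type enrichment, computed from inverse-variance-weighted replicate averages.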
row,Variant,polymerase ribozyme fitness (log ratio)
1,A12C A39U G59A A91U C93U A150C,≤ -4.2
2,A12G A49C G74A C96U U102G G112U C125U,≤ -4.2
3,A12U A20C A23U A26U A40U C93A U127A,≤ -4.2
4,A12C A21C C57A C76U U101G C116G G140A G141U,≤ -4.2
5,A12G G68C,≤ -4.2
6,A12G C35U U56C C57G G58U A60G,-0.194
7,A12G G83U G92U A142G,-2.93
8,A12C G58U U78G C96U C105U G128A U146A,≤ -4.2
9,A12G A22U U33G A41U U45G C85A A91U C96A A115G A138U,≤ -4.2
10,A12U A21U C38A A106U C116A A119G,-3.18
11,A12U C76A C93U C108U A115U,≤ -4.2
12,A12G A21G U56A C87A U102G U134G,≤ -4.2
13,U13C A26C A52C,-3.55
14,A12U C93U G100U U111A,≤ -4.2
15,U13G C27U G83U C132G,≤ -4.2
16,A12C C57A G84U U90A C93G C99U G136U U151G,≤ -4.2
17,A12C A29C C85A G133A,≤ -4.2
18,A12G U31G C51A C57A C79A G92U C93U C105U U134C,≤ -4.2
19,G11U A19U C32U U33C G74A C85U G141U C149A,≤ -4.2
20,U13G A21U C54G G58A G84A C149A,≤ -4.2
21,U13G A28C A60G G84U G124U G133A A142C,≤ -4.2

row,Variant,polymerase ribozyme fitness (log ratio)
1,U13A A16U G59A A91G C125G U130A,≤ -4.2
2,A12G C54A A60C G74A C96U G124A,≤ -4.2
3,U13C A47U G50A C54U G141U,≤ -4.2
4,G11U A19C A21C C32U C36A A64U C93U A110G,≤ -4.2
5,A12G A30G G50U C87U C125U U145C C149A,≤ -4.2
6,G11U A21C C54G C85U A89C C105A A106G G143A,≤ -4.2
7,U13A C51U C54A G86U C116U A120G,≤ -4.2
8,A12C C72A C96G C103A U109A A113U A122U C125G U135C,≤ -4.2
9,U13G A41G C54G G81A C96G C118U,≤ -4.2
10,A12C C85G,-2.59
11,A12U A19G C43A C85U C96U A115C,≤ -4.2
12,U13C U56A C93U U102G A106C G117A A119U,≤ -4.2
13,A12G U77C,-3.98
14,G11U C27U A29C C75U G83C G126U,≤ -4.2
15,U13C U31A C69A C116G G117A C132U,≤ -4.2
16,A12U A24C G74A C75A U101G A137U,≤ -4.2
17,A12C A30U A37U A49U C57U U90G A91U A107U,≤ -4.2
18,A12C A37C G86U A142U,≤ -4.2
19,U13C U90G C116A,-4.13
20,U13C G94A,-0.431
21,A12G A21C C32G G50U C125G,≤ -4.2

row,Variant,polymerase ribozyme fitness (log ratio)
1,U13G A19U C38U U53A A66U U90C,≤ -4.2
2,A12U A19C U55A G83A G86A A89C C96A A113C U127C,≤ -4.2
3,A12G G58U C116U A150G,-1.58
4,U13A A17U C18U A24G A28U U33G C85U U127A,≤ -4.2
5,A12U U53A C116G A119U G124A A142C,≤ -4.2
6,A12C C35U A39G G59A A64C G65U A115U C116U G133U,≤ -4.2
7,A12C C14A A29G G81A A91G C93U C103A,≤ -4.2
8,U13G G25U A28C C85G G141A,≤ -4.2
9,A12C U33A G48C U127G G140C,≤ -4.2
10,A12U C85U A106C A107U G124A U134A G140A,≤ -4.2
11,A12U U56C G83C C85G C87A C108U U111G A150G,≤ -4.2
12,A12C U15C A40U C99G,-0.411
13,G11U A60C U61A C69G G74A U146G A150C,≤ -4.2
14,U13G G81U G86A C105U,-3.74
15,U13C G59C U61G C79U G84A C132A,-4.17
16,A12C C38A U55G U61G G84A A107U C125U,≤ -4.2
17,A12C C27G C79U G84U C85G G86C A107G U127C G143U C149A,≤ -4.2
18,A12U U90G G100A A107U,≤ -4.2
19,A12U A40U C85U U145C,-1.21
20,A12U A41C G46C G86U G128A C129G,≤ -4.2
21,G11U C32U G84A C85A C105U C132U U139G U151G,-4.14

row,Variant,polymerase ribozyme fitness (log ratio)
1,U13G G62C C72U A107G A113U,≤ -4.2
2,A12C A21G A23C A24C A30U C54U G59A A73G G83A,≤ -4.2
3,A12U A28U U82G C118U,≤ -4.2
4,A12G C14G A22C A37C G88C G143C,≤ -4.2
5,A12C C38A C54U U55A C57G A73U C93G,≤ -4.2
6,A12C G68U G100A A142U A150G,≤ -4.2
7,A12U C95A C96A C123U G140U,≤ -4.2
8,U13G G65C G83A,≤ -4.2
9,A12G G74C,-3.9
10,U13A C35U U53A G84C C99G G133C,≤ -4.2
11,G11U A41U C93U C99A U104G C118U G140U G152U,-4.02
12,G11U G48C C79A C93G A119G G141U,≤ -4.2
13,A12U A30C A107C A138G U148G,≤ -4.2
14,U13A G34U A49C G140A A142U,≤ -4.2
15,U13G G46A A47C G86U,≤ -4.2
16,A12U G34C C35G U77C G126U U144G,≤ -4.2
17,A12U A16C A41C A47G A91C G92C,≤ -4.2
18,A12G C36G G46A G58A C95G U148G,≤ -4.2
19,A12U U13G A49C A106G,≤ -4.2
20,A12U G84C,-2.67
21,A12C A41U G83A C87U G140C,≤ -4.2

# Reference: the RNAGym collection of RNA variant scans (doi:10.1073/pnas.2313332121)
